According to the supplement of paper PMC12217912:
Some of the results follow. The full chains were built here from the parent and the listed change. Values near 0.05 are background.

B1: TEV protease; numbered along this chain (parent)
chain: MGESLFKGPRDYNPISSSICHLTNESDGHTTSLYGIGFGPFIITNKHLFRRNNGTLVVQSLHGVFKVKDTTTLQQHLVDGRDMIIIRMPKDFPPFPQKLKFREPQREERICLVTTNFQTKSMSSMVSDTSCTFPSGDGIFWKHWIQTKDGQCGSPLVSTRDGFIVGIHSASNFTNTNNYFTSVPKNFMELLTNQEAQQWVSGWRLNADSVLWGGHKVFMVKPEEPFQPVKEATQL

Variants of: B1
Assay: raw area under fraction-flipped curve 0-4 h after induction (AUC4h, not background-subtracted), DNA-recorder readout of cleavage of the substrate (dimensionless); higher = more cleavage of the substrate by the protease variant
Details: temperature: 34 °C; time window: 0-4 h after rhamnose induction
Method: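 In vivo DNA recorder in E. coli TOP10(DE3) ΔrhaA at 34 °C. Each TEVp single-site mutant (parent TEVp 0) is paired with a single-site variant of the 7-mer TEVs (canonical ENLYFQ|S). The substrate sits between flexible linkers in a Bxb1-sfGFP-TEVs-SsrA fusion, so cleavage stabilises Bxb1 and speeds flipping of a recombination array, read by NGS. The value is the raw area under the fraction-flipped curve over 0-4 h after rhamnose induction (AUC4h), with ≥20 reads per time point. It is not background-subtracted; inactive controls average about 0.047.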
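Also: Bxb1 expression induced with 0.2% (w/v) L-rhamnose at OD600 near 0.5, cultures sampled hourly, flipped fraction per protease–substrate barcode pair counted by paired-end Illumina sequencing.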

## MGESLFKGPRDYNPISSSICHLTNESDGHTTSLYGIGFGPFIITNKHLFRRNNGTLVVQSLHGVFKVKDTTTLQQHLVDGRDMIIIRMPKDFPPFPQKLKFREPQREERICLVTTNFQTKSMSSMVSDTSCTFPSGDGIFWKHWIQTKDGQCGSPLVSTRDGFIVGIHSASNFTATNNYFTSVPKNFMELLTNQEAQQWVSGWRLNADSVLWGGHKVFMVKPEEPFQPVKEATQL [N175A]
  area with substrate ENLYFAS: 0.0333
  area with substrate ENLYFCS: 0.027
  area with substrate ENLYFES: 0.0641
  area with substrate ENLYFFS: 0.072
  area with substrate ENLYFHS: 0.0544
  area with substrate ENLYFIS: 0.0575
  area with substrate ENLYFKS: 0.0512
  area with substrate ENLYFMS: 0.0543
  area with substrate ENLYFPS: 0.0833
  area with substrate ENLYFSS: 0.0645
  area with substrate ENLYFTS: 0.0566
  area with substrate ENLYFWS: 0.058

## MGESLFKGPRDYNPISSSICHLTNESDGHTTSLYGIGFGPFIITNKHLFRRNNGTLVVQSLHGVFKVKDTTTLQQHLVDGRDMIIIRMPKDFPPFPQKLKFREPQREERICLVTTNFQTKSMSSMVSDTSCTFPSGDGIFWKHWIQTKDGQCGSPLVSTRDGFIVGIHSASNFTSTNNYFTSVPKNFMELLTNQEAQQWVSGWRLNADSVLWGGHKVFMVKPEEPFQPVKEATQL [N175S]
  area with substrate ENLYFAS: 0.0543
  area with substrate ENLYFCS: 0.101
  area with substrate ENLYFES: 0.0694
  area with substrate ENLYFFS: 0.0763
  area with substrate ENLYFGS: 0.0706
  area with substrate ENLYFIS: 0.0697
  area with substrate ENLYFMS: 0.0668
  area with substrate ENLYFPS: 0.0636
  area with substrate ENLYFRS: 0.0681

## MGESLFKGPRDYNPISSSICHLTNESDGHTTSLYGIGFGPFIITNKHLFRRNNGTLVVQSLHGVFKVKDTTTLQQHLVDGRDMIIIRMPKDFPPFPQKLKFREPQREERICLVTTNFQTKSMSSMVSDTSCTFPSGDGIFWKHWIQTKDGQCGSPLVSTRDGFIVGIHSASNFTNQNNYFTSVPKNFMELLTNQEAQQWVSGWRLNADSVLWGGHKVFMVKPEEPFQPVKEATQL [T176Q]
  area with substrate ENLYFAS: 0.0709
  area with substrate ENLYFFS: 0.0823
  area with substrate ENLYFHS: 0.054
  area with substrate ENLYFIS: 0.0424
  area with substrate ENLYFPS: 0.0636
  area with substrate ENLYFRS: 0.0506
  area with substrate ENLYFSS: 0.0297

## MGESLFKGPRDYNPISSSICHLTNESDGHTTSLYGIGFGPFIITNKHLFRRNNGTLVVQSLHGVFKVKDTTTLQQHLVDGRDMIIIRMPKDFPPFPQKLKFREPQREERICLVTTNFQTKSMSSMVSDTSCTFPSGDGIFWKHWIQTKDGQCGSPLVSTRDGFIVGIHSASNFCNTNNYFTSVPKNFMELLTNQEAQQWVSGWRLNADSVLWGGHKVFMVKPEEPFQPVKEATQL [T174C]
  area with substrate ENLYFAS: 0.0559
  area with substrate ENLYFCS: 0.0578
  area with substrate ENLYFES: 0.063
  area with substrate ENLYFFS: 0.0773
  area with substrate ENLYFIS: 0.0518
  area with substrate ENLYFKS: 0.0562
  area with substrate ENLYFPS: 0.0625
  area with substrate ENLYFRS: 0.0501
  area with substrate ENLYFSS: 0.0559
  area with substrate ENLYFTS: 0.0639
  area with substrate ENLYFYS: 0.0457

## MGESLFKGPRDYNPISSSICHLTNESDGHTTSLYGIGFGPFIITNKHLFRRNNGTLVVQSLHGVFKVKDTTTLQQHLVDGRDMIIIRMPKDFPPFPQKLKFREPQREERICLVTTNFQTKSMSSMVSDTSCTFPSGDGIFWKHWIQTKDGQCGSPLVSTRDGFIVGIHSASNFINTNNYFTSVPKNFMELLTNQEAQQWVSGWRLNADSVLWGGHKVFMVKPEEPFQPVKEATQL [T174I]
  area with substrate ENLYFAS: 0.0537
  area with substrate ENLYFES: 0.0579
  area with substrate ENLYFGS: 0.0643
  area with substrate ENLYFMS: 0.0768
  area with substrate ENLYFPS: 0.0673

## MGESLFKGPRDYNPISSSICHLTNESDGHTTSLYGIGFGPFIITNKHLFRRNNGTLVVQSLHGVFKVKDTTTLQQHLVDGRDMIIIRMPKDFPPFPQKLKFREPQREERICLVTTNFQTKSMSSMVSDTSCTFPSGDGIFWKHWIQTKDGQCGSPLVSTRDGFIVGIHSASNFTNTNNYFTSVPKNFMLLLTNQEAQQWVSGWRLNADSVLWGGHKVFMVKPEEPFQPVKEATQL [E189L]
  area with substrate ENLYFAS: 0.0485
  area with substrate ENLYFDS: 0.0568
  area with substrate ENLYFES: 0.053
  area with substrate ENLYFFS: 0.0678
  area with substrate ENLYFIS: 0.0576
  area with substrate ENLYFKS: 0.0588
  area with substrate ENLYFMS: 0.0628
  area with substrate ENLYFNS: 0.0588
  area with substrate ENLYFPS: 0.0513
  area with substrate ENLYFRS: 0.0584
  area with substrate ENLYFSS: 0.0667
  area with substrate ENLYFVS: 0.0523
  area with substrate ENLYFWS: 0.0591
  area with substrate ENLYFYS: 0.0552

## MGESLFKGPRDYNPISSSICHLTNESDGHTTSLYGIGFGPFIITNKHLFRRNNGTLVVQSLHGVFKVKDTTTLQQHLVDGRDMIIIRMPKDFPPFPQKLKFREPQREERICLVTTNFQTKSMSSMVSDTSCTFPSGDGIFWKHWIQTKDGQCGSPLVSTRDGFIVGIHSASNFTNTNNYFISVPKNFMELLTNQEAQQWVSGWRLNADSVLWGGHKVFMVKPEEPFQPVKEATQL [T181I]
  area with substrate ENLYFAS: 0.0627
  area with substrate ENLYFES: 0.0485
  area with substrate ENLYFFS: 0.0626
  area with substrate ENLYFGS: 0.0935
  area with substrate ENLYFNS: 0.0451
  area with substrate ENLYFPS: 0.0408
  area with substrate ENLYFTS: 0.0462

## MGESLFKGPRDYNPISSSICHLTNESDGHTTSLYGIGFGPFIITNKHLFRRNNGTLVVQSLHGVFKVKDTTTLQQHLVDGRDMIIIRMPKDFPPFPQKLKFREPQREERICLVTTNFQTKSMSSMVSDTSCTFPSGDGIFWKHWIQTKDGQCGSPLVSTRDGFIVGIHSASNFTNTNNYFHSVPKNFMELLTNQEAQQWVSGWRLNADSVLWGGHKVFMVKPEEPFQPVKEATQL [T181H]
  area with substrate ENLYFAS: 0.0576
  area with substrate ENLYFES: 0.0607
  area with substrate ENLYFGS: 0.0466
  area with substrate ENLYFIS: 0.0633
  area with substrate ENLYFRS: 0.0595
  area with substrate ENLYFTS: 0.0633
  area with substrate ENLYFWS: 0.033
  area with substrate ENLYFYS: 0.0303

## MGESLFKGPRDYNPISSSICHLTNESDGHTTSLYGIGFGPFIITNKHLFRRNNGTLVVQSLHGVFKVKDTTTLQQHLVDGRDMIIIRMPKDFPPFPQKLKFREPQREERICLVTTNFQTKSMSSMVSDTSCTFPSGDGIFWKHWIQTKDGQCGSPLVSTRDGFIVGIHSASNFTNTNNYFVSVPKNFMELLTNQEAQQWVSGWRLNADSVLWGGHKVFMVKPEEPFQPVKEATQL [T181V]
  area with substrate ENLYFAS: 0.0566
  area with substrate ENLYFCS: 0.0641
  area with substrate ENLYFDS: 0.074
  area with substrate ENLYFES: 0.047
  area with substrate ENLYFFS: 0.0571
  area with substrate ENLYFGS: 0.0759
  area with substrate ENLYFIS: 0.0533
  area with substrate ENLYFKS: 0.063
  area with substrate ENLYFMS: 0.0593
  area with substrate ENLYFPS: 0.0623
  area with substrate ENLYFTS: 0.066
  area with substrate ENLYFVS: 0.0537
  area with substrate ENLYFYS: 0.0571

## MGESLFKGPRDYNPISSSICHLTNESDGHTTSLYGIGFGPFIITNKHLFRRNNGTLVVQSLHGVFKVKDTTTLQQHLVDGRDMIIIRMPKDFPPFPQKLKFREPQREERICLVTTNFQTKSMSSMVSDTSCTFPSGDGIFWKHWIQTKDGQCGSPLVSTRDGFIVGIHSASNFTNTNNYFTSVPKNFMETLTNQEAQQWVSGWRLNADSVLWGGHKVFMVKPEEPFQPVKEATQL [L190T]
  area with substrate ENLYFAS: 0.0705
  area with substrate ENLYFES: 0.0621
  area with substrate ENLYFFS: 0.0717
  area with substrate ENLYFHS: 0.0454
  area with substrate ENLYFIS: 0.067
  area with substrate ENLYFMS: 0.0745
  area with substrate ENLYFNS: 0.0681
  area with substrate ENLYFPS: 0.081
  area with substrate ENLYFRS: 0.069
  area with substrate ENLYFTS: 0.0641
  area with substrate ENLYFYS: 0.0521
